This note sets out measurements from PubChem BioAssay (NCI).

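Protocol summary: plate cells (96-well), add compound at 5 concentrations, incubate 48 h, interpolate endpoints linearly. GI50: concentration for 50% inhibition of growth. TGI denotes the concentration required for complete inhibition of growth.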

This assay has as its system NCI-H322M lung. The experiment in a line: NCI-60 cell line screen, 48 h.
For the compound `CC(=O)OCC1OC(OC(C)=O)C(NC#N)C(OC(C)=O)C1OC(C)=O` (centres undefined), the TGI was over 100 µM.

`O=C1OC(c2ccccc2)=N/C1=C\c1ccc(N(CCCl)CCCl)cc1` registered a TGI of over 100 µM.

`CC1=C(C(=O)OC(C)(C)C)C(c2ccc([N+](=O)[O-])cc2)C(C(=O)OC(C)(C)C)=C(C)N1` gave a TGI of 41.3 µM.

`CN1Cc2c(ccc3c2OCO3)[C@@H]2[C@H](O)Cc3cc4c(cc3[C@@H]21)OCO4` returned a TGI of over 100 µM.

In the case of `COC(=O)CCSC(=O)Nc1ccccc1Cl`, the TGI was over 100 µM.

Compound `CC(C)[C@H](NC(=O)OCc1ccccc1)C(=O)N[C@H](/C=C/C(=O)OC(C)(C)C)CO` registered a TGI of over 100 µM.

Regarding `CCOC(=O)C1(NC(=O)OC(C)(C)C)CCc2[nH]oc(=O)c2C1` (centres undefined), the TGI is over 100 µM.

Compound `O=[N+]([O-])C1(CO)COC(CCc2ccccc2)OC1` (centres undefined) gave a TGI of over 100 µM.

The compound `COc1ccc(C[C@H](N)C(=O)N[C@@H]2[C@@H](CO)OC(n3cnc4c(N(C)C)ncnc43)[C@@H]2O)cc1` (some centres undefined) showed a TGI of 1.49 µM.

For `COc1ccc(-c2ccc(/C=N/n3c(COc4ccc(Cl)c(C)c4)nn(CN4CCOCC4)c3=S)o2)c([N+](=O)[O-])c1`, the GI50 is 24.6 µM and the TGI was 97.7 µM.

The compound `CCc1nc2cc(F)ccc2[nH]c1=O` returned a TGI of over 100 µM.

As to `Cn1c(=O)c2c(n(C)c1=O)n1c(=O)c3ccccc3nc1n2C`, the TGI is over 100 µM.

As for `C/C(=C\CNc1ncnc2c1ncn2CCC#N)CO`, the TGI was over 100 µM.

`O=NNc1nc(-c2ccccn2)nc2ccccc12` returned a TGI of over 100 µM.

Take `CC(C)S1=C2C(=O)CC(C)(C)CC2=Nc2ccccc21` (centres undefined): the TGI was over 100 µM.

`CCN(CC)CCCNc1nnc(C)c2[nH]c3ccccc3c12` displayed a TGI of 52.2 µM.

Compound `NNC(=O)COc1nc(-c2cccs2)nc2ccc(I)cc12` registered a TGI of 44.1 µM.

The compound `CCNC(=O)O/N=C1/C=C2CC[C@@H]3C(CC[C@@]4(C)C3CC[C@@H]4OC(=O)NCC)[C@@]2(C)CC1` (some centres undefined) came in with a TGI of 15.1 µM.

For the compound `CS(=O)(=O)Nc1ccc(Nc2c3ccccc3nc3cc(Cl)ccc23)cc1`, the GI50 is 4.58 µM and the TGI came to 18 µM.

Consider `COc1ccc2c3c(c4cc(OC)c(OC)cc4c2c1)C[C@H]1CCCCN1C3`, for which the TGI was determined as 1.37e-06 µM.

Consider `O=C(COC(=O)[C@H](C[Se][Se]C[C@H](NC(=O)c1ccc(Br)cc1F)C(=O)OCC(=O)c1ccc(F)cc1)NC(=O)c1ccc(Br)cc1F)c1ccc(F)cc1`, for which the GI50 is 0.316 µM and the TGI was found to be 4.82 µM.

The compound `CCCCCCCCCCCC1=C(O)C(=O)C=C(O)C1=O` displayed a TGI of 29.6 µM.

In the case of `COc1ccc(Cl)cc1Nc1nc(C(F)(F)F)ccc1C(=O)N/N=C/c1ccc(Cl)cc1`, the GI50 was 0.31 µM and the TGI worked out at 32.3 µM.

For the compound `CC(C)(CCc1nc2ccccc2[nH]1)C(=O)O`, the TGI is over 100 µM.

Turning to `COc1cc(/C=C/C(=O)c2c(-c3ccc(Cl)cc3)nc3sc(C)nn23)cc(OC)c1OC`, the GI50 is over 100 µM and the TGI is over 100 µM.

In the case of `Clc1ccc(N=CNc2ccc(-c3nc4ccccc4[nH]3)cc2)cc1`, the GI50 was 0.916 µM and the TGI was over 100 µM.

In the case of `N#Cc1c(N/N=C/c2c(Cl)cccc2Cl)nc(N)nc1N1CCCC1`, the GI50 was 8.18 µM and the TGI is over 100 µM.

For `COc1cc(O)c2c(=O)c(O)c(-c3ccc(O)c(O)c3)oc2c1`, the TGI turned out to be 43 µM.

`COc1ccc(-c2cc(=O)c3cc(OC)c(OC)cc3[nH]2)cc1OC` returned a TGI of over 100 µM.

Compound `O=C(Cn1c(-c2ccccc2)cc2ccccc21)N1CCOCC1` registered a TGI of over 100 µM.

`Clc1cc2ncn(C3CCCO3)c2cc1Cl` (centres undefined) came in with a TGI of over 100 µM.

Turning to `O=C(O)C12C3C4C1C1C2C3C41I` (centres undefined), the TGI was over 100 µM.

`CC(C)(C)OC(=O)NCCCCC1NC(=O)[C@@H]2Cc3c([nH]c4ccccc34)C(c3ccccc3)N2C1=O` (some centres undefined): the TGI was over 100 µM.

For `Cn1c(=O)c(C#N)c(O)c2cc3ccccc3nc21`, the TGI is over 100 µM.

Regarding `CC(=O)Oc1c(OC(C)C)cc(=O)n2ccsc12`, the TGI was over 100 µM.

In the case of `C(/Cc1ccc2c(c1)OCO2)=N\NC1=NCCCCN1`, the TGI was over 100 µM.

As to `CCCCSC1=N/C(=C\c2ccccc2O)C(Cl)=N1`, the TGI is over 100 µM.

For the compound `Cc1nc(-c2cccnc2)sc1C(=O)/C=C/c1ccc(Cl)cc1Cl`, the TGI is over 100 µM.

For `Oc1ccc(/C=N/Nc2nnc(N/N=C/c3ccc(O)cc3O)c3ccccc23)c(O)c1`, the GI50 was 0.424 µM and the TGI came out at 4.6 µM.

`COc1cc(COC(=O)NC(Cc2cccs2)C(=O)O)c([N+](=O)[O-])cc1OC` (centres undefined): the TGI was over 100 µM.

For the compound `O=C(NCc1ccc(Cl)c(Cl)c1)c1nc2ccccc2nc1NCc1ccc(Cl)c(Cl)c1`, the TGI was over 100 µM.

Regarding `CC(=O)Nc1ccc(C(=O)COc2cccc(/C=C3\CCc4ccccc4C3=O)c2)cc1`, the GI50 was 76.1 µM and the TGI was over 100 µM.

As for `O=C1C(=O)c2c(ccc3ccccc23)-c2ccccc21`, the GI50 was 3.17 µM and the TGI worked out at 15.2 µM.

For `Cc1cc(NS(=O)(=O)c2ccc(NC(NC(=O)OC(C)C)(C(F)(F)F)C(F)(F)F)cc2)nc(C)n1`, the TGI is over 100 µM.

As for `CCOC(=O)c1c(SCCN(CC)CC)n(-c2ccccc2)c(=S)n(-c2ccccc2)c1=O`, the TGI turned out to be 32.4 µM.

For the compound `N#Cc1c(N)n(-c2nc3ccccc3s2)c(=O)c2cc([N+](=O)[O-])ccc12`, the TGI is over 82.6 µM.

For `Cc1cc(C2(c3cc(C)c(O)c4ncccc34)OC(=O)c3ccccc32)c2cccnc2c1O`, the GI50 is 4.27 µM and the TGI is over 100 µM.

In turn, `CCOC(=O)Oc1ccc2[nH]c3c(C)cc(N)c(C)c3c2c1` registered a TGI of over 100 µM.

`NS(=O)(=O)c1cc2c(cc1Cl)NC(C(=O)NNC(=O)c1ccncc1)=NS2(=O)=O` had a TGI of over 100 µM.

For the compound `Oc1ccc(CCNc2nc3ccccc3c3[nH]c4ccccc4c23)cc1`, the GI50 is 1.56 µM and the TGI amounted to 3.29 µM.

Compound `Cc1ccc(S(=O)(=O)NCc2cccc([N+](=O)[O-])c2)cc1` yielded a TGI of over 100 µM.

As for `COc1ccc2c(C=O)c3n(c(=O)c2c1OC)CCc1cc2c(cc1-3)OCO2`, the TGI was over 100 µM.

Compound `O=C1c2sccc2C(=O)c2c(CO)csc21` gave a TGI of 20.5 µM.

In turn, `CCCCc1c2c(nc3c1CC/C(=C\c1ccccc1)C3=O)CCCC2` had a TGI of 29.3 µM.

`Nc1c(/C=C/c2cc3cc(C4=NCCN4)ccc3o2)[nH]c2cc(C3=NCCN3)ccc12` came in with a TGI of 59.6 µM.

The compound `O=C1NC2(CCCCC2)C2=C1CCCCC2` came in with a TGI of over 100 µM.

Regarding `COc1cc2c(cc1OCCCN1CCN(CCCn3c4ccccc4c4ccccc43)CC1)N=C[C@@H]1CCCN1C2=O`, the GI50 is 0.129 µM and the TGI stood at 1.1 µM.

As for `CCOC(=O)c1c(/C=N\Nc2ccccc2)nc2ccccc2c1-c1ccccc1`, the TGI was over 100 µM.

For the compound `O=C(c1ccccc1)n1c2ccc(Br)cc2c2nc3ccccc3nc21`, the TGI is over 100 µM.

In the case of `COc1cccc(OC)c1/C=N\N1C(=O)c2ccccc2C1=O`, the TGI is over 100 µM.

Turning to `CCOC(=O)C(NC(=O)c1cccc(Cl)c1)(N1CCN(c2cc3c(cc2F)c(=O)c(C(=O)O)cn3CC)CC1)C(F)(F)F` (centres undefined), the TGI was determined as 86 µM.

`O=C1Cc2c([nH]c3c(Br)cccc23)-c2ccccc2N1` gave a TGI of over 100 µM.

`CCc1c[nH]c2ncnc(N3CC[C@](N)(CNC(=O)c4ccc(F)cc4F)C3)c12`: the GI50 is 28.5 µM and the TGI is over 100 µM.

For the compound `CC1=C2[C@@H](c3ccccc3)C3C=CC2(C=C3C(F)(F)F)N(C(=O)NC2CCCCC2)C1=O` (some centres undefined), the TGI is over 100 µM.

In the case of `CC(=O)CC(=O)N1CCOC1=O`, the TGI is over 10 µM.

The compound `CC(=O)OC/C=C/Cn1nc(Br)c(=O)[nH]c1=O` displayed a TGI of over 100 µM.

As for `O=P1(C(O)c2ccccc2)N(Cc2ccccc2)[C@@H]2CCCC[C@H]2N1Cc1ccccc1` (some centres undefined), the TGI is over 100 µM.

Consider `Cn1c(=O)c(Oc2ccc(F)cc2F)cc2cnc(NC3CCC(O)CC3)nc21` (centres undefined), for which the GI50 was over 25 µM and the TGI was over 25 µM.

Turning to `Brc1ccc2c(c1)-c1ccccc1C1=NCCN12`, the GI50 was 1.39 µM and the TGI stood at 4.75 µM.

As for `COc1ccc(S(=O)(=O)NCCCNc2nccc(-c3c(-c4ccc(F)cc4)nc4sccn34)n2)cc1`, the GI50 is 14.5 µM and the TGI was over 100 µM.

For the compound `CN1CCN(Cc2ccc(NC(=O)c3cncc(C#Cc4cnc5cccnn45)c3)cc2C(F)(F)F)CC1`, the GI50 is 1.57 µM and the TGI came to 4.74 µM.

As to `CO[C@@H](c1ccccc1)[C@H](O)[C@@](O)(c1ccccc1)P(=O)(OC)OC`, the TGI is over 100 µM.

`COC(=O)/C(=C/c1ccc(OC)cc1)c1cc(OC)c(OC)c(OC)c1` returned a TGI of over 100 µM.

`CC(=O)Oc1cc(OC(C)=O)c2c(c1C)CC[C@@H]1[C@@H]2CC[C@]2(C)[C@@H](OC(C)=O)CC[C@@H]12` yielded a TGI of 31.3 µM.

For `CCN(CCCl)c1ccc(NC(=O)c2cc(C(=O)NCCN(C)C)cc(C(=O)Nc3ccc(N(CC)CCCl)cc3)c2)cc1`, the TGI worked out at 32.4 µM.

For the compound `Cc1cc(N(CCCl)CCCl)ccc1/C=N\NC(=O)c1cccnc1`, the GI50 was over 100 µM and the TGI is over 100 µM.

In the case of `OCCn1c(-c2ccncc2)c(-c2ccc(F)cc2)c2ncccc21`, the GI50 was over 25 µM and the TGI is over 25 µM.

Take `COc1cccc2c(Nc3ccc(C(=O)NCCN4CCNCC4)cc3)cc(-c3ccccc3)nc12`: the GI50 is 51.7 µM and the TGI is over 100 µM.

The compound `COC(=O)C1=C(C)C(=O)C2(CCCCCC2C(=O)OC)C1` (centres undefined) gave a TGI of over 100 µM.

For the compound `CCC(=C(c1ccc(OCCN(CC)CC)cc1)c1ccc(OCCN(CC)CC)cc1)c1ccc(Cl)cc1`, the GI50 was 0.562 µM and the TGI came to 1.08 µM.

In the case of `COc1cc([C@H]2c3cc(O)c(OC)cc3C[C@]3(O)[C@@H]2CO[C@@H]3O)ccc1O`, the TGI was over 100 µM.

Compound `CC1CC2C(=O)N(c3ccccc3)C(=O)C2c2[nH]c3ccccc3c21` (centres undefined) showed a TGI of over 100 µM.

With `CN1C/C(=C\c2ccco2)c2nc(N)nc(-c3ccco3)c2C1`, the TGI was over 100 µM.

`O=CC12CCCN1CCC2` yielded a TGI of over 100 µM.

In the case of `c1csc(-c2[nH]nc3c2CCc2ccccc2-3)c1`, the GI50 is 13.7 µM and the TGI is over 87.9 µM.

In turn, `Nc1nc(Nc2cc(F)c(Cl)c(F)c2)cc(=O)[nH]1` registered a TGI of over 100 µM.
